# Test results from the antibiotic and cytotoxicity screens of Wong et al. (2023).
# The list shows a part of the results.
# Test system: HSkMC (human skeletal muscle cells)
# Experiment: cytotoxicity call (relative viability < 0.9)
# Settings: 10 µM
row,SMILES,cytotoxicity call
1,COc1ccc(NC(=O)Nc2cccc3c2O[C@@H](CN(C)Cc2ccc(-c4ccccc4)cc2)[C@@H](C)CN([C@H](C)CO)C3=O)cc1,inactive
2,C[C@H](CO)N1C[C@H](C)[C@H](CN(C)C(=O)NC2CCCCC2)OCCCC[C@H](C)Oc2ccc(NS(=O)(=O)c3ccc(Cl)cc3)cc2C1=O,inactive
3,Cc1ccc(S(=O)(=O)N(C)C[C@H]2Oc3cc(C#Cc4ccncc4)ccc3S(=O)(=O)N([C@H](C)CO)C[C@H]2C)cc1,inactive
4,C[C@H](CO)N1C[C@H](C)[C@H](CN(C)Cc2ccc(C(=O)O)cc2)Oc2c(NC(=O)Nc3ccc(C(F)(F)F)cc3)cccc2C1=O,inactive
5,C[C@@H]1CN([C@H](C)CO)C(=O)CCCn2cc(nn2)CO[C@@H]1CN(C)S(=O)(=O)c1cccc(C#N)c1,inactive
6,Cc1ccc(S(=O)(=O)Nc2ccc3c(c2)CC(=O)N([C@@H](C)CO)C[C@H](C)[C@H](CN(C)Cc2ccc(C(F)(F)F)cc2)O3)cc1,active
7,O=C(C[C@@H]1CC[C@H]2[C@@H](COC[C@@H](O)CN2S(=O)(=O)c2ccccc2)O1)N[C@@H]1CCN(Cc2ccccc2)C1,inactive
8,CO[C@@H]1CN(C)C(=O)c2ccc(NS(=O)(=O)c3ccccc3)cc2OC[C@@H](C)N(C(=O)NC(C)C)C[C@H]1C,inactive
9,C[C@H]1CCCCO[C@@H](CN(C)CC2CCCCC2)[C@@H](C)CN([C@@H](C)CO)C(=O)c2cc(NC(=O)Nc3cccc4ccccc34)ccc2O1,inactive
10,N#Cc1c(Oc2ccc(F)c(NC(=O)Cc3cccc(C(F)(F)F)c3)c2)ccc2nc(NC(=O)C3CC3)sc12,active
11,COCCOC(=O)N1C(=O)[C@@]2(c3cc(C#CC4=CCCCC4)ccc31)[C@H](C(=O)N1CCc3cc(OC)c(OC)cc3C1)[C@H]1C(=O)O[C@H](c3ccccc3)[C@H](c3ccccc3)N1[C@@H]2c1ccccc1OCCO,active
12,CC1=CC=CC2=NC(=O)C[C@](C)(C(=O)O)N12,inactive
13,COc1ccc(S(=O)(=O)N(C)C[C@@H]2OCCCC[C@H](C)Oc3ccc(NS(=O)(=O)c4cn(C)cn4)cc3C(=O)N([C@H](C)CO)C[C@@H]2C)cc1,inactive
14,C[C@H](CO)N1C[C@H](C)[C@H](CN(C)S(=O)(=O)c2ccccc2)Oc2c(NC(=O)C3CC3)cccc2C1=O,inactive
15,COc1ccc(NC(=O)Nc2ccc3c(c2)C(=O)N([C@H](C)CO)C[C@@H](C)[C@H](CN(C)S(=O)(=O)c2ccc(OC)cc2)OCCCC[C@H](C)O3)cc1,inactive
16,C=CCC[C@@H](Cc1ccc(F)cc1)C(=O)OC[C@H](Cc1c[nH]c2ccccc12)NC(=O)[C@@H](CC=C)CC(=O)N[C@H](CO)Cc1ccccc1,inactive
17,C[C@H](CO)N1C[C@H](C)[C@@H](CN(C)C(=O)Nc2cccc3ccccc23)Oc2ccc(NS(=O)(=O)c3ccc(Cl)cc3)cc2C1=O,inactive
18,C[C@@H]1CCCCO[C@@H](CN(C)C(=O)Nc2ccc(C(F)(F)F)cc2)[C@@H](C)CN([C@H](C)CO)C(=O)c2cc(NC(=O)NC3CCCCC3)ccc2O1,inactive
19,CO[C@@H]1CN(C)C(=O)c2ccc(NC(=O)C3CC3)cc2OC[C@@H](C)N(C(=O)Nc2ccc(C(F)(F)F)cc2)C[C@H]1C,inactive
20,CC(C)NC(=O)Nc1ccc2c(c1)C(=O)N([C@H](C)CO)C[C@H](C)[C@@H](CN(C)C(=O)C1CCCCC1)OCCCC[C@H](C)O2,inactive
21,C[C@@H]1CN([C@H](C)CO)C(=O)c2cc(NC(=O)C3CC3)ccc2O[C@H]1CN(C)Cc1ccc(Oc2ccccc2)cc1,inactive
22,Cc1cc(-n2c(=O)[nH]c(=O)n(C)c2=O)ccc1Oc1ccc(SC(F)(F)F)cc1,inactive
23,C[C@@H]1CCCCO[C@H](CN(C)C(=O)Nc2cccc3ccccc23)[C@@H](C)CN([C@H](C)CO)C(=O)c2cc(NS(=O)(=O)c3cccs3)ccc2O1,inactive
24,Cc1noc(C)c1NC(=O)N(C)C[C@H]1Oc2ccc(NC(=O)CCCN(C)C)cc2C(=O)N([C@@H](C)CO)C[C@@H]1C,inactive
25,C[C@H](CO)N1C[C@H](C)[C@@H](CN(C)S(=O)(=O)c2ccc(F)cc2)Oc2c(NS(C)(=O)=O)cccc2C1=O,inactive
26,COCC(=O)Nc1ccc2c(c1)OC[C@H](C)N(C(=O)Cc1ccccn1)C[C@H](C)[C@H](OC)CN(C)C2=O,inactive
27,CCS(=O)(=O)NCC[C@H]1CC[C@H](NC(=O)C2CCOCC2)[C@@H](CO)O1,inactive
28,C=CCC1C=C(C)CC(C)CC(OC)C2OC(O)(C(=O)C(=O)N3CCCCC3C(=O)OC(C(C)=CC3CCC(O)C(OC)C3)C(C)C(O)CC1=O)C(C)CC2OC (stereo not given),inactive

# Test system: HepG2
# Experiment: cytotoxicity call (relative viability < 0.9)
# Settings: 10 µM
row,SMILES,cytotoxicity call
1,COCC(=O)Nc1ccc2c(c1)OC[C@@H](C)N(Cc1ccccc1F)C[C@H](C)[C@@H](OC)CN(C)C2=O,inactive
2,O=C(NO)c1cccc(C(=O)N/N=C/[C@H](O)[C@@H](O)[C@@H](O)[C@H](O)C(=O)O)c1,inactive
3,C[C@H](CO)N1C[C@H](C)[C@H](CN(C)Cc2ccc(Oc3ccccc3)cc2)Oc2ccc(NC(=O)Cc3cn(C)c4ccccc34)cc2CC1=O,active
4,O=C(O)Cn1c(=O)oc2ccccc21,inactive
5,O=C(O)/C=C(\CC(=O)O)C(=O)O,inactive
6,COc1ccccc1-c1ccc2c(c1)O[C@@H](CN(C)C(=O)c1ccncc1)[C@H](C)CN([C@H](C)CO)S2(=O)=O,inactive
7,C[C@H]1CN([C@@H](C)CO)C(=O)c2cc(Br)cnc2O[C@@H]1CN(C)S(=O)(=O)c1cn(C)cn1,inactive
8,CO[C@H]1CN(C)C(=O)c2ccc(NS(C)(=O)=O)cc2OC[C@H](C)N(C(=O)C2CCOCC2)C[C@@H]1C,inactive
9,CNC[C@@H]1Oc2ccc(NS(=O)(=O)c3cn(C)cn3)cc2CC(=O)N([C@H](C)CO)C[C@H]1C,inactive
10,Cc1ccc(S(=O)(=O)N(C)C[C@H]2Oc3ccc(NC(=O)Nc4ccc(C(F)(F)F)cc4)cc3C(=O)N([C@@H](C)CO)C[C@@H]2C)cc1,inactive
11,C[C@@H]1CN([C@H](C)CO)C(=O)c2cccc(NS(C)(=O)=O)c2O[C@H]1CN(C)Cc1ccc(C(F)(F)F)cc1,inactive
12,CC[N+](CC)(CC)CCOc1cccc(OCC[N+](CC)(CC)CC)c1OCC[N+](CC)(CC)CC.[I-].[I-].[I-],inactive
13,COc1ccc(NC(=O)Nc2cccc3c2O[C@@H](CN(C)Cc2ccc(-c4ccccc4)cc2)[C@@H](C)CN([C@H](C)CO)C3=O)cc1,inactive
14,C[C@H](CO)N1C[C@H](C)[C@H](CN(C)C(=O)NC2CCCCC2)OCCCC[C@H](C)Oc2ccc(NS(=O)(=O)c3ccc(Cl)cc3)cc2C1=O,inactive
15,Cc1ccc(S(=O)(=O)N(C)C[C@H]2Oc3cc(C#Cc4ccncc4)ccc3S(=O)(=O)N([C@H](C)CO)C[C@H]2C)cc1,active
16,C[C@H](CO)N1C[C@H](C)[C@H](CN(C)Cc2ccc(C(=O)O)cc2)Oc2c(NC(=O)Nc3ccc(C(F)(F)F)cc3)cccc2C1=O,inactive

row,SMILES,cytotoxicity call
1,C[C@@H]1CN([C@H](C)CO)C(=O)CCCn2cc(nn2)CO[C@@H]1CN(C)S(=O)(=O)c1cccc(C#N)c1,inactive
2,Cc1ccc(S(=O)(=O)Nc2ccc3c(c2)CC(=O)N([C@@H](C)CO)C[C@H](C)[C@H](CN(C)Cc2ccc(C(F)(F)F)cc2)O3)cc1,inactive
3,O=C(C[C@@H]1CC[C@H]2[C@@H](COC[C@@H](O)CN2S(=O)(=O)c2ccccc2)O1)N[C@@H]1CCN(Cc2ccccc2)C1,inactive
4,CO[C@@H]1CN(C)C(=O)c2ccc(NS(=O)(=O)c3ccccc3)cc2OC[C@@H](C)N(C(=O)NC(C)C)C[C@H]1C,inactive
5,C[C@H]1CCCCO[C@@H](CN(C)CC2CCCCC2)[C@@H](C)CN([C@@H](C)CO)C(=O)c2cc(NC(=O)Nc3cccc4ccccc34)ccc2O1,active
6,N#Cc1c(Oc2ccc(F)c(NC(=O)Cc3cccc(C(F)(F)F)c3)c2)ccc2nc(NC(=O)C3CC3)sc12,active
7,COCCOC(=O)N1C(=O)[C@@]2(c3cc(C#CC4=CCCCC4)ccc31)[C@H](C(=O)N1CCc3cc(OC)c(OC)cc3C1)[C@H]1C(=O)O[C@H](c3ccccc3)[C@H](c3ccccc3)N1[C@@H]2c1ccccc1OCCO,active
8,CC1=CC=CC2=NC(=O)C[C@](C)(C(=O)O)N12,inactive
9,COc1ccc(S(=O)(=O)N(C)C[C@@H]2OCCCC[C@H](C)Oc3ccc(NS(=O)(=O)c4cn(C)cn4)cc3C(=O)N([C@H](C)CO)C[C@@H]2C)cc1,inactive
10,C[C@H](CO)N1C[C@H](C)[C@H](CN(C)S(=O)(=O)c2ccccc2)Oc2c(NC(=O)C3CC3)cccc2C1=O,inactive
11,COc1ccc(NC(=O)Nc2ccc3c(c2)C(=O)N([C@H](C)CO)C[C@@H](C)[C@H](CN(C)S(=O)(=O)c2ccc(OC)cc2)OCCCC[C@H](C)O3)cc1,inactive
12,C=CCC[C@@H](Cc1ccc(F)cc1)C(=O)OC[C@H](Cc1c[nH]c2ccccc12)NC(=O)[C@@H](CC=C)CC(=O)N[C@H](CO)Cc1ccccc1,inactive
13,C[C@H](CO)N1C[C@H](C)[C@@H](CN(C)C(=O)Nc2cccc3ccccc23)Oc2ccc(NS(=O)(=O)c3ccc(Cl)cc3)cc2C1=O,inactive
14,C[C@@H]1CCCCO[C@@H](CN(C)C(=O)Nc2ccc(C(F)(F)F)cc2)[C@@H](C)CN([C@H](C)CO)C(=O)c2cc(NC(=O)NC3CCCCC3)ccc2O1,inactive
15,CO[C@@H]1CN(C)C(=O)c2ccc(NC(=O)C3CC3)cc2OC[C@@H](C)N(C(=O)Nc2ccc(C(F)(F)F)cc2)C[C@H]1C,inactive
16,CC(C)NC(=O)Nc1ccc2c(c1)C(=O)N([C@H](C)CO)C[C@H](C)[C@@H](CN(C)C(=O)C1CCCCC1)OCCCC[C@H](C)O2,inactive
